Assay [1] concerns the target ICAM-1 (recombinant, Sino Biological 10346-H03H) (UniProt P05362). Nature of the assay: SPR; ICAM-1, ICAM-2, ICAM-3 amine-coupled to a CM5 chip; αI domains injected; 25 °C; HBST with 1 mM MgCl2; both purified.
In assay [2] the target is ICAM-2 (recombinant, Sino Biological 10332-H03H) (UniProt P13598). The assay is described as above.
Assay [3] concerns the target T1, ICAM-3 (recombinant, Sino Biological 10333-H03H) (UniProt P32942).
T1 sequence: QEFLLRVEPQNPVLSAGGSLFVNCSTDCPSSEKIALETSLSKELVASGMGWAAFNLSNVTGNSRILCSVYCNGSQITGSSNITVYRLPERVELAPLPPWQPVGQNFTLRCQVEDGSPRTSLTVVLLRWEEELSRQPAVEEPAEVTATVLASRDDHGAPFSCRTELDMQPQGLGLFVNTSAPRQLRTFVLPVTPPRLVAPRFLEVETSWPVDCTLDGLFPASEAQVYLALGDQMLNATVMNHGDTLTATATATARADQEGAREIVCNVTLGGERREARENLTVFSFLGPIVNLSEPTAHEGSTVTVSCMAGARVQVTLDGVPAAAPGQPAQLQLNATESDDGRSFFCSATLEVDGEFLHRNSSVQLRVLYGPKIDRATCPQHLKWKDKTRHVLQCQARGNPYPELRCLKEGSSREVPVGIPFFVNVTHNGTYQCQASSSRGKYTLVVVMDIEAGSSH
The description is as above.

Sequences of proteins named here, by UniProt entry; tags and fusion partners are left off. A change or cut given only in a name is not applied to a line headed by its entry. Residues count along the entry.
UniProt P05362, residues 28-480: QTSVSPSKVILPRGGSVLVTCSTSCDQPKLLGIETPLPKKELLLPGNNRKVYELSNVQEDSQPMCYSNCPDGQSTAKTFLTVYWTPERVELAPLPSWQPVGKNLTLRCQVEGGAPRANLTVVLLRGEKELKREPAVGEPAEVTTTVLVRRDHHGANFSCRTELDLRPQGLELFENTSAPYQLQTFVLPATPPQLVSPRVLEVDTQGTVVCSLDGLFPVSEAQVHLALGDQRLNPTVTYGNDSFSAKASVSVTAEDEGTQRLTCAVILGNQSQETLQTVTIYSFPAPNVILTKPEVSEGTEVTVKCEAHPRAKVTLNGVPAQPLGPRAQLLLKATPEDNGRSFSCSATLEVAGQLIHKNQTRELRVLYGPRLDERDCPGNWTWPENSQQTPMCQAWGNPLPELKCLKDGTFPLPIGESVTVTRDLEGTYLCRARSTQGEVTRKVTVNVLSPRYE
UniProt P13598, residues 25-223: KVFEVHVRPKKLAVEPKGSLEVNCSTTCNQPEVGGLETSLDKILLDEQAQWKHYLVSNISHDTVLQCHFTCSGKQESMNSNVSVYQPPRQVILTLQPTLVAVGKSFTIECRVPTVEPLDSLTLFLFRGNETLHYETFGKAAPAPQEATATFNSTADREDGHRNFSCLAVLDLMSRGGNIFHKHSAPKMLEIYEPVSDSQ
UniProt P01024, residues 955-1303: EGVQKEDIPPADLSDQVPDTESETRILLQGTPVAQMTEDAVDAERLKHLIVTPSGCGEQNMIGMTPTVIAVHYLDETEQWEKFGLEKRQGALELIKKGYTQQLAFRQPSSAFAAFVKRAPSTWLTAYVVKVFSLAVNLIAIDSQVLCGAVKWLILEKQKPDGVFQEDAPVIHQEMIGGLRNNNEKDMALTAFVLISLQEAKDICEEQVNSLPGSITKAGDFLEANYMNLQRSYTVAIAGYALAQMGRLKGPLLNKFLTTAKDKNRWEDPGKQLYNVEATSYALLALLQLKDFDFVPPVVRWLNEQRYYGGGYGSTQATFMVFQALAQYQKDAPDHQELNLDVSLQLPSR

For assay [4], the target named is C3dg (UniProt P01024). Nature of the assay: SPR; as a1 but HBST with 5 mM EDTA instead of MgCl2; C3 fragments on the chip, αI domains injected; both purified.
In assay [5] the target is C3b (UniProt P01024). The assay is described as above.
The target of assay [6] is C3dg (UniProt P01024). Nature of the assay: SPR; C3b deposited on a CM5 chip (amine-coupled seed, then convertase-mediated deposition to about 5000 RU), iC3b and C3dg made from it on the chip; αI domains injected as dilution series, 120 s; Biacore T200, 25 °C; HBST (10 mM HEPES, 150 mM NaCl, 0.005% Tween-20, pH 7.4) with 1 mM MgCl2; Langmuir 1:1 fit, KD calculated; both purified.

Assay [7] concerns the target C3b (UniProt P01024). Described as above.

These are yes or no findings as the source states them, for the method shown. Some entries that bind do so weakly or less than the wild type. For some of these results: Where a sequence is shown, tags or fusion partners need not be part of it.

B1: CR4 αXI domain, wild type (WT) (domain or fragment, UniProt P20702 148-336)
chain: QEQDIVFLIDGSGSISSRNFATMMNFVRAVISQFQRPSTQFSLMQFSNKFQTHFTFEEFRRSSNPLSLLASVHQLQGFTYTATAIQNVVHRLFHASYGARRDAAKILIVITDGKKEGDSLDYKDVIPMADAAGIIRYAIGVGLAFQNRNSWKELNDIASKPSQEHIFKVEDFDALKDIQNQLKEKIFAI
Turning to B1, the binding result in assay [1], in assay [2] and in assay [3] was “binds weakly” throughout.

B2: CR4 αXI domain, high-affinity (HA) variant p.I333G (domain or fragment, UniProt P20702 148-336)
chain: QEQDIVFLIDGSGSISSRNFATMMNFVRAVISQFQRPSTQFSLMQFSNKFQTHFTFEEFRRSSNPLSLLASVHQLQGFTYTATAIQNVVHRLFHASYGARRDAAKILIVITDGKKEGDSLDYKDVIPMADAAGIIRYAIGVGLAFQNRNSWKELNDIASKPSQEHIFKVEDFDALKDIQNQLKEKGFAI
Take B2: the binding entry was “binds weakly” in assay [1], “no binding (condition: with 5 mM EDTA)” in assay [4] and “no binding (condition: with 5 mM EDTA)” in assay [5].

B3: CD11d αDI domain, high-affinity (HA) variant p.I332G (domain or fragment, UniProt Q13349 145-334)
chain: PHQEMDIVFLIDGSGSIDQNDFNQMKGFVQAVMGQFEGTDTLFALMQYSNLLKIHFTFTQFRTSPSQQSLVDPIVQLKGLTFTATGILTVVTQLFHHKNGARKSAKKILIVITDGQKYKDPLEYSDVIPQAEKAGIIRYAIGVGHAFQGPTARQELNTISSAPPQDHVFKVDNFAALGSIQKQLQEKGYA
Take B3: the binding result in assay [6] and in assay [7] was “no binding” each time.

B4: CD11d αDI domain, wild type (WT) (domain or fragment, UniProt Q13349 145-334)
chain: PHQEMDIVFLIDGSGSIDQNDFNQMKGFVQAVMGQFEGTDTLFALMQYSNLLKIHFTFTQFRTSPSQQSLVDPIVQLKGLTFTATGILTVVTQLFHHKNGARKSAKKILIVITDGQKYKDPLEYSDVIPQAEKAGIIRYAIGVGHAFQGPTARQELNTISSAPPQDHVFKVDNFAALGSIQKQLQEKIYA
For B4, the binding entry in assay [1], in assay [2], in assay [3], in assay [6] and in assay [7] was “no binding” each time.

(Values after publication PMC11853025.)
